# Measured values: PubChem BioAssay AID1030 (National Center for Advancing Translational Sciences (NCATS), 2008)
# “And” between values parts separate entries of the source, which are not always exact repeats. Equal values may be shown once. Hit rate of the full screen: of about 220,000 compounds, about 16,000 (7.3%) were called active. The shares of active, inactive and inconclusive entries below differ from those in the screen. Calls follow the shape of the dose curve; as a rule, active = well fitted inhibition curve with a large enough effect (not every such curve was filed as active); inconclusive = small, poorly fitted or top-dose-only effect, or another doubt; inactive = no such curve, though single readings can be large or run the other way. A potency beside an inconclusive call is a rough fit, not a confirmed value.
# Molecular target: Aldehyde dehydrogenase 1A1 (Homo sapiens) (UniProt P00352)
# Test: qHTS Assay for Inhibitors of Aldehyde Dehydrogenase 1 (ALDH1A1)
# Conditions: Purified ALDH1A1, NADH fluorescence, propionaldehyde substrate; series mostly up to 75.3 µM
# Potency is read from the fitted curve at half-maximal effect; tags tell the direction and shape of the fitted curve.
# UniProt P00352, sequence (P00352 whole entry, looked up): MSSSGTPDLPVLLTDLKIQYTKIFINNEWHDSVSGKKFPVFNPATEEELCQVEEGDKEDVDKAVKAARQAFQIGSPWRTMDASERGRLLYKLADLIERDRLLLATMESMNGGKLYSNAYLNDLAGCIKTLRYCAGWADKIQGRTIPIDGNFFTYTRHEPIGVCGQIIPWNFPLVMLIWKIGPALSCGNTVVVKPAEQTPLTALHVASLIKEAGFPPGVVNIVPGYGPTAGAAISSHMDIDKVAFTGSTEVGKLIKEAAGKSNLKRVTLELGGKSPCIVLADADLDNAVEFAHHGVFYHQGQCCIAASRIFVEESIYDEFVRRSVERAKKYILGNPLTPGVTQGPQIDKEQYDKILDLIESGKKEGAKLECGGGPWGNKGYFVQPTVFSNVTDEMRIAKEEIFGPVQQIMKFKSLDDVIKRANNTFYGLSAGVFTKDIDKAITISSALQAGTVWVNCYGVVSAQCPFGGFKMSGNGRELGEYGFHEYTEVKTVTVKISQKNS
row,SMILES,Potency
1,COCCn1c(SCC(=O)N2CCCc3ccccc32)nnc1-c1ccoc1C,"inconclusive: 31.6 µM [inhibitor, single point]"
2,Cc1ccc(-c2nc(N)n(S(C)(=O)=O)n2)cc1,inactive
3,CCOc1ccccc1N1CCN(CC(O)COc2ccc3c(C)cc(=O)oc3c2)CC1 (stereo unspecified),"inconclusive: 28.2 µM [inhibitor, partial curve]"
4,Cc1c(C(=O)O)c(O)cc2c1C(=O)c1c(O)c([C@H]3O[C@H](CO)[C@@H](O)[C@H](O)[C@H]3O)c(O)c(O)c1C2=O,active: 11.2 µM
5,COc1ccc(COc2cc(-c3cccc(OC)c3)nc3ccc(N)cc23)cc1,"inconclusive: 31.6 µM [inhibitor, partial curve] and inconclusive: 35.5 µM [inhibitor, partial curve]"
6,Cc1cccc(OCC(=O)Nc2cccc(O)c2)c1,inactive
7,Cc1nc2ccc(NC(=O)c3cc([N+](=O)[O-])cc([N+](=O)[O-])c3Cl)cc2s1,"inconclusive: 3.16 µM [inhibitor, full curve]"
8,COc1ccc2cc3cc(C(=O)NCc4cccs4)oc3nc2c1,"inconclusive: 17.8 µM [inhibitor, partial curve]"
9,CC1=CC(=O)C(C(C)C)=C/C1=N\OC(=O)c1cccc2nc(C)oc12,"inconclusive: 3.16 µM [inhibitor, full curve]"
10,Cc1cccc(C)c1NC(=O)COC(=O)c1c2c(nc3ccccc13)/C(=C\c1ccc3c(c1)OCO3)CCC2,"inconclusive: 39.8 µM [inhibitor, single point]"
11,Cc1ccccc1NC(=O)c1sc(NC(=O)COc2ccccc2)c(C#N)c1C,"inconclusive: 39.8 µM [inhibitor, single point]"
12,O=C(NC(=S)Nc1ccc(S(=O)(=O)Nc2ccccc2)cc1)C1CC1,active: 22.4 µM
13,Cc1[nH]c2ccccc2c1/C=N/n1cnnc1,inactive
14,COC(=O)Nc1c(-c2ccccc2)nc2ccc(C)cn12,"inconclusive: 28.2 µM [inhibitor, partial curve]"
15,Cc1ccccc1OCCCC(=O)Nc1ccccc1C(F)(F)F,inactive
16,c1ccc(Oc2nc3ccccc3n3cccc23)cc1,"inconclusive: 39.8 µM [inhibitor, single point]"
17,C=CCNc1ncnc2c1[nH]c1ccccc12,"inconclusive: 31.6 µM [inhibitor, partial curve]"
18,O=C(NCCN1CCOCC1)c1ccc(Cl)cc1,"inconclusive: 44.7 µM [inhibitor, single point]"
19,Cc1ccc(/C=C(\C#N)C(=O)Nc2cccc3ncccc23)o1,active: 8.91 µM
20,COC(=O)c1ccccc1NC(=O)CSc1nnc(-c2ccncc2)o1,active: 17.8 µM
21,Cc1ccc(NC(=O)COc2cccc3ccc(C)nc23)c(Br)c1,"inconclusive: 39.8 µM [inhibitor, single point]"
22,COc1ccc(Nc2nc(N3CCCC3)c3ccccc3n2)cc1,inactive
23,COCCn1c(=O)c(-c2ccccc2)nc2cnc(N3CCOCC3)nc21,"inconclusive: 18.9 µM [inhibitor, partial curve]"
24,CCS(=O)(=O)c1ccc2oc(SCC(=O)NCCC3=CCCCC3)nc2c1,inactive

row,SMILES,Potency
1,COc1ccc(N2CCN(C(=O)C(C)(C)Oc3ccc(Cl)cc3)CC2)cc1,active: 10 µM
2,CC1=C(C(=O)OC2CCCCC2)C(c2cccnc2)n2nnnc2N1 (stereo unspecified),inactive
3,Cc1ccc(NC(=O)COC(=O)CN2C(=O)NC(C)(C)C2=O)cc1S(=O)(=O)N1CCOCC1,"inconclusive: 22.4 µM [inhibitor, single point]"
4,CC(C)OC(=O)c1cc(NC(=O)C2C3CCC(O3)C2C(=O)O)cc(C(=O)OC(C)C)c1 (stereo unspecified),"inconclusive: 25.1 µM [inhibitor, single point]"
5,Cc1cccc(C(=O)NC(=S)N2CCN(c3ccc([N+](=O)[O-])cc3)CC2)c1,"inconclusive: 39.8 µM [inhibitor, single point]"
6,CC(=O)NCC(=O)OCC(=O)c1ccc2ccccc2c1,"inconclusive: 39.8 µM [inhibitor, single point]"
7,CN(C)CCCN1C(=O)c2oc3ccc(F)cc3c(=O)c2C1c1cccnc1 (stereo unspecified),"inconclusive: 28.2 µM [inhibitor, partial curve]"
8,C#CCNC(=O)C1=C[C@@H](c2ccc(C(F)(F)F)cc2)[C@H](CCCO)[C@@H](OCC)O1,inactive
9,N#Cc1ccc(CN2CC3(CCN(C(=O)c4cc(C(F)(F)F)cc(C(F)(F)F)c4)CC3)C2)cc1,inactive
10,CN(Cc1ccccc1)C(=O)c1nn2cccnc2c1Cl,"inconclusive: 39.8 µM [inhibitor, single point]"
11,N#Cc1ccc(NCC(=O)Nc2ccc3c(c2)OCCO3)cc1,active: 12.6 µM
12,O=C(CSc1nnc(-c2ccccn2)n1Cc1ccccc1)N1CCOCC1,inactive
13,O=C(NNS(=O)(=O)c1ccc(Br)cc1)C1CCCCC1,inactive
14,O=C(CSc1ccc(-c2ccco2)nn1)c1ccc(F)cc1,active: 3.16 µM
15,COc1cccc(N2CCN(C(=O)/C=C/c3ccco3)CC2)c1,"inconclusive: 39.8 µM [inhibitor, single point]"
16,CCOC(=O)C1(Cc2cccc(OC)c2)CCN(Cc2cnc(N)nc2)CC1,inactive
17,COCCCNC(=O)c1cc2c(=O)n3cc(C)ccc3nc2nc1NCC1CCCO1 (stereo unspecified),"inconclusive: 22.4 µM [inhibitor, partial curve]"
18,Cc1ccc(S(=O)(=O)c2c(C)nn(-c3ccccc3)c2OC(=O)c2ccco2)cc1,"inconclusive: 22.4 µM [inhibitor, partial curve, poor fit]"
19,O=C(COc1ccccc1[N+](=O)[O-])Nc1ccc2c(c1)OCO2,inactive
20,CCN(CC)CCn1c(-c2ccccc2)nc2c(NC3CCCCC3)nc(C)nc21,"inconclusive: 31.6 µM [inhibitor, partial curve]"
21,COc1ccc(OC)c(C2=C/C(=C/c3ccccn3)C(=O)O2)c1,"inconclusive: 25.1 µM [inhibitor, partial curve]"
22,CN1CCN(c2ccc(-c3ccnn3C(=O)Nc3ccccc3)cc2)CC1,"inconclusive: 39.8 µM [inhibitor, single point]"
23,CCOC(=O)C1CCCN(C(=O)c2sc3nc(-c4ccc(OC)cc4)cn3c2C)C1 (stereo unspecified),"inconclusive: 39.8 µM [inhibitor, single point]"
24,C#Cc1ccc([C@@H]2C=C(C(=O)N3CCOCC3)O[C@H](OCCCCO)C2)cc1,"inconclusive: 25.1 µM [inhibitor, single point]"

row,SMILES,Potency
1,Cc1c(Cc2ccccc2)c(=O)oc2cc(OC(=O)c3ccccc3)ccc12,"inconclusive: 20 µM [inhibitor, partial curve]"
2,Cc1cccc(CN2CCN(CC(=O)NCc3cccs3)C2=O)c1,"inconclusive: 39.8 µM [inhibitor, single point]"
3,Cc1ccccc1C1c2[nH]c3ccccc3c2CCN1CCCn1cccn1 (stereo unspecified),"inconclusive: 28.2 µM [inhibitor, partial curve]"
4,c1ccc(Nc2cc(-c3ccccc3)nc3ncnn23)cc1,"inconclusive: 37.7 µM [inhibitor, partial curve, poor fit]"
5,CCOCCCNC(=O)CNC(=S)N(Cc1ccc(C)cc1)Cc1ccco1,"inconclusive: 39.8 µM [inhibitor, single point]"
6,CC(C)CC(=O)Nc1ccc(C(=O)NNC(=O)C(c2ccccc2)c2ccccc2)cc1,"inconclusive: 35.5 µM [inhibitor, single point]"
7,CC(C)Cn1c(SC(C)C(=O)Nc2ccc3c(c2)OCCO3)nc2ccccc2c1=O (stereo unspecified),active: 15.8 µM
8,Cn1c(Sc2ccc(Cl)cc2)c(C=O)c2ccccc21,inactive
9,CCOC(=O)CNC(=O)CSc1nnnn1-c1ccc(C)c(C)c1,"inconclusive: 39.8 µM [inhibitor, single point]"
10,O=C(c1ccc(Br)o1)N(Cc1ccccc1)Cc1ccccc1,active: 199 nM and active: 794 nM
11,O=[N+]([O-])c1cccnc1N1CCN(c2ccc(F)cc2)CC1,inactive
12,Cc1cccc(C)c1N1CCN(S(=O)(=O)N2CCCCC2)CC1,"inconclusive: 10 µM [inhibitor, partial curve]"
13,CN(c1nc(-c2ccc(Br)cc2)cs1)C1CCS(=O)(=O)C1 (stereo unspecified),inactive
14,Cc1ccc(S(=O)(=O)N(C)C)cc1NC(=O)c1cncc(Br)c1,"inconclusive: 39.8 µM [inhibitor, single point]"
15,Cc1ccc([N+](=O)[O-])cc1NCC(=O)NN,inactive
16,c1ccc(-n2cc(CN3CCC(N4CCOCC4)CC3)c(-c3ccc4c(c3)OCO4)n2)cc1,"inconclusive: 39.8 µM [inhibitor, single point]"
17,CCc1ccc(C(C)NC(=O)/C(C#N)=C\c2cn[nH]c2-c2ccccc2)cc1 (stereo unspecified),"inconclusive: 35.5 µM [inhibitor, single point]"
18,N#C/C(=N\Nc1ccccc1Cl)C(=O)c1ccccc1,inactive
19,CCCCn1c(-c2csc3ccccc23)n[nH]c1=S,"inconclusive: 31.6 µM [inhibitor, partial curve, poor fit]"
20,CC(C)CNC(=S)N1CCN(C)CC1,inactive
21,Cc1ccc(C)c(C(=O)COC(=O)c2ccccc2N2C(=O)C3C4CCC(C4)C3C2=O)c1 (stereo unspecified),"inconclusive: 39.8 µM [inhibitor, single point]"
22,CC(C)c1ccc(-c2c(C#N)c(N)nc(SCC(=O)N3CCCCC3)c2C#N)cc1,"inconclusive: 1 µM [inhibitor, partial curve]"
23,CCCn1c(-c2ccc[nH]c2=O)nc2cc(C)c(C)cc21,"inconclusive: 31.6 µM [inhibitor, partial curve]"
